Data from PMC4336329 (PLoS ONE, 2015).
About 14,000 (4.5%) of roughly 310,000 compounds showed an effect of 50% or more. Effects have a minus sign here. This is one part of the list.

The compounds below were run against human ether-à-go-go-related gene (hERG) potassium channel (human, UniProt Q12809) (assay: primary screen, population patch clamp on CHO cells stably expressing hERG).
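Also: peak tail current of the secondary pulse compared with the same well before compound.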

human ether-à-go-go-related gene (hERG) potassium channel, sequence (Q12809 whole entry, looked up): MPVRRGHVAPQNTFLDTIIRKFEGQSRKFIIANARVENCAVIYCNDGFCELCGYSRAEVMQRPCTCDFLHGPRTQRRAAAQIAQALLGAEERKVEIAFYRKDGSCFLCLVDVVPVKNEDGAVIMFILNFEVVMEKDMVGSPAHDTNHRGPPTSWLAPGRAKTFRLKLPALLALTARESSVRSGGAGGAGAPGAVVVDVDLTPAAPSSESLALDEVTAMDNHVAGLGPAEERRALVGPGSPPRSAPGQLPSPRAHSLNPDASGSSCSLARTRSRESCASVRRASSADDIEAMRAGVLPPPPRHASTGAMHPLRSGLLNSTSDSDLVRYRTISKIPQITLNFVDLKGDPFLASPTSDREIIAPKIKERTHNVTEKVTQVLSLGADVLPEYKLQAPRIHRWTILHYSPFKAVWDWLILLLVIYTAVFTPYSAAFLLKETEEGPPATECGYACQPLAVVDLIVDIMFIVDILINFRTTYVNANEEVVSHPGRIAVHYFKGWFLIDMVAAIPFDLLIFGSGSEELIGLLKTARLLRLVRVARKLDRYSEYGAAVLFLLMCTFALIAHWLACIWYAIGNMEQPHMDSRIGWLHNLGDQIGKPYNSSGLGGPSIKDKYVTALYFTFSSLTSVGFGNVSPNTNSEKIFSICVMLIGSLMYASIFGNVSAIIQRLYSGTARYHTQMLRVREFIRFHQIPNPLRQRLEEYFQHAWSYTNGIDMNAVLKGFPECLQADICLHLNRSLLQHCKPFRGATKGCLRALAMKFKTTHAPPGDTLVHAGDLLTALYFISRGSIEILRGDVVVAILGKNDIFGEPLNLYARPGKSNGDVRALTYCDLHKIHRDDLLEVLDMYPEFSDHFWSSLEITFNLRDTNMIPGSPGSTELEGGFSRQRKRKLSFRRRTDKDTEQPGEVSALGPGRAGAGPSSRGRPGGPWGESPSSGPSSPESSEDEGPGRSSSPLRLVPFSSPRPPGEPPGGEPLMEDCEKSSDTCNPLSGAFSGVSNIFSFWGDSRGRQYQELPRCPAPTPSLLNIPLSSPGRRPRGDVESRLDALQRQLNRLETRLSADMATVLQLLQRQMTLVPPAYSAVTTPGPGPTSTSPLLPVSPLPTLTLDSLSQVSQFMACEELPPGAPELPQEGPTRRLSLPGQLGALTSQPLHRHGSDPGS

Going from `Cl.O=C(CN1CCOCC1)NCC12CC3CC(CC(C3)C1)C2` to `COc1ccc(N=C2SC(CC(=O)Nc3ccccc3)C(=O)N2CCN2CCOCC2)cc1` (stereo not shown), the “hERG current change (%, negative = inhibition) at 10uM” value falls from 3.71% to -23.1%.

First: CCOc1ccc(-n2c(SCC(N)=O)nc3c(c2=O)SCC3)cc1
Second: CCOc1ccc(C(=O)OCn2nnc3ccccc3c2=O)cc1OC
The “hERG current change (%, negative = inhibition) at 10uM” value of the first is higher: 12% for the first, 3.01% for the second.

First: CCOC(=O)C1CCN(Cc2cc(C(C)C)c(O)c(C(C)C)c2)CC1
Second: O=C(c1cc2cc(Cl)ccc2o1)N1CCCC1
The “hERG current change (%, negative = inhibition) at 10uM” value of the first is lower: -41.3% for the first, 2.54% for the second.

Compared with `O=[N+]([O-])/C=C1\C=CC=CN1Cc1ccc(Cl)cc1`, `S=c1[nH]nc(-c2ccccc2)n1Cc1ccccc1` is higher in “hERG current change (%, negative = inhibition) at 10uM” value: -12.8% for the first, 5.13% for the second.

Compared with `CCOc1ccc(C(O)(c2ccccc2OC)C(CN2CCCC2)c2ccccc2)cc1.Cl` (stereo not shown), `COc1ccccc1N(C)S(=O)(=O)c1ccc(C(=O)NCC2CCCCC2)cc1` is higher in “hERG current change (%, negative = inhibition) at 10uM” value: -18.3% for the first, -3.05% for the second.

First: Cc1cccc(-n2ncc3c(NCCCn4ccnc4)ncnc32)c1
Second: CCCc1ccc2oc(C(=O)NCCc3cnn(C)c3)c(C)c2c1
The “hERG current change (%, negative = inhibition) at 10uM” value of the first is higher: -16.5% for the first, -40.4% for the second.

First: Cc1ccc(C(=O)Nc2ccc3c(c2)CCC3)o1
Second: Cc1ccc(NC(=O)CCc2c(C)nn(-c3ccc(N4CCCCC4)nn3)c2C)cc1F
The “hERG current change (%, negative = inhibition) at 10uM” value of the first is lower: -17.1% for the first, -6.63% for the second.

First: Nc1ccc(Cl)cc1/C(=N/O)c1ccccc1
Second: Cc1ccccc1[C@@H]1C(C#N)=C(N)S[C@H]1C(=O)c1ccccc1
The “hERG current change (%, negative = inhibition) at 10uM” value of the first is higher: 6.2% for the first, 1.89% for the second.

Compared with `CCOc1ccc(NC(=O)CN2CCCC2c2cccs2)cc1S(=O)(=O)N1CCCCC1` (stereo not shown), `Cc1ccc(S(=O)(=O)N2CCCC2)cc1S(=O)(=O)N1CCCC1` is higher in “hERG current change (%, negative = inhibition) at 10uM” value: -11.8% for the first, -11.1% for the second.

First: CCOC(=O)c1sc(S(C)=O)c2c1CCc1conc1-2 (stereo not shown)
Second: CCOC(=O)c1sc(/N=C/N(C)C)nc1C
The “hERG current change (%, negative = inhibition) at 10uM” value of the first is lower: -8.56% for the first, 7.67% for the second.

Going from `COc1ccc(Br)cc1/C=N/n1c(COc2ccccc2)n[nH]c1=S` to `CC(=O)c1ccc(OC(=O)COc2ccccc2)cc1`, the “hERG current change (%, negative = inhibition) at 10uM” value falls from 23.7% to 10.1%.

First: COc1ccc(Cl)cc1NS(=O)(=O)c1cccc(C(=O)NCC2CCCO2)c1 (stereo not shown)
Second: CCN(CC)S(=O)(=O)c1cccc(NC(=O)c2cccc(S(=O)(=O)N3CCCC3)c2)c1
The “hERG current change (%, negative = inhibition) at 10uM” value of the first is higher: -5.08% for the first, -80.8% for the second.

First: CCOC(=O)N1CCC(N2CCN(Cc3ccc(C)o3)C(CCO)C2)CC1 (stereo not shown)
Second: CCOC(=O)N1CCN(S(=O)(=O)c2ccc(C(=O)N(CCN(C)C)c3nc4ccc(CC)cc4s3)cc2)CC1.Cl
The “hERG current change (%, negative = inhibition) at 10uM” value of the first is higher: -4.54% for the first, -51.9% for the second.

Going from `CNC(=O)CC1C(=O)N(c2ccc(OC)cc2)C(=S)N1NC(=O)c1cccc(F)c1` (stereo not shown) to `COc1ccc(N2C(=O)CC(N3CCN(C4CCc5ccccc5C4)CC3)C2=O)cc1` (stereo not shown), the “hERG current change (%, negative = inhibition) at 10uM” value falls from 6.04% to -61.7%.

Compared with `O=C(CCS(=O)(=O)c1ccc(Br)cc1)NCc1ccc(F)cc1`, `Cc1ccc(S(=O)(=O)NCC(=O)Nc2cccc([N+](=O)[O-])c2)cc1` is lower in “hERG current change (%, negative = inhibition) at 10uM” value: 9.4% for the first, -14.8% for the second.

Compared with `Cc1nc(C)c(CCNC(=O)c2ccccc2)s1`, `O=C(NCCS(=O)(=O)NCc1cccnc1)c1ccccc1` is lower in “hERG current change (%, negative = inhibition) at 10uM” value: 30.2% for the first, 6.42% for the second.

Compared with `CCOC(=O)c1sc(NC(=O)/C=C/c2cnn(C)c2C)c(C(=O)OCC)c1C`, `COC(=O)C(C)N1C(=O)S/C(=C\c2ccc(-c3ccc(C(=O)O)cc3C)o2)C1=O` (stereo not shown) is higher in “hERG current change (%, negative = inhibition) at 10uM” value: 9.79% for the first, 15.5% for the second.

Compared with `CCCc1cc(=O)[nH]c(SCc2ccc(F)cc2)n1`, `CCc1ccc(NC(=O)CCc2nc3cccnc3n2Cc2ccc(OC)cc2)cc1` is lower in “hERG current change (%, negative = inhibition) at 10uM” value: 2.84% for the first, 2.41% for the second.

Going from `CC(=O)C1=C(C)NC(SCC(=O)c2ccc(Cl)cc2)=C(C#N)C1CC(C)C` (stereo not shown) to `CC1CN(C(=S)SCC(=O)c2ccc(Cl)cc2)CC(C)O1` (stereo not shown), the “hERG current change (%, negative = inhibition) at 10uM” value falls from 0.245% to -4.66%.

Compared with `Nc1nc(SCC(=O)c2cccs2)n[nH]1`, `COC(=O)Cn1c2ccccc2c2nc(C)sc21` is lower in “hERG current change (%, negative = inhibition) at 10uM” value: 11.6% for the first, -1.56% for the second.

First: CC(C)(C)c1ccc(OC(=O)N2CCOCC2)cc1
Second: COc1ccc(C(C)=O)cc1COC(=O)c1ccc(S(=O)(=O)N2CCOCC2)cc1
The “hERG current change (%, negative = inhibition) at 10uM” value of the first is higher: 14% for the first, -2.54% for the second.

Going from `Cc1cc2c(N)cccc2nn1` to `Cc1nc(/C(N)=N/OC(=O)Cc2ccccc2)no1`, the “hERG current change (%, negative = inhibition) at 10uM” value rises from -0.488% to 3.53%.

First: Cc1c(NC(=O)/C(C#N)=C/C2CC=CCC2)c(=O)n(-c2ccccc2)n1C (stereo not shown)
Second: Cc1ccc(/C=C2\SC(=S)N(c3c(C)n(C)n(-c4ccccc4)c3=O)C2=O)cc1
The “hERG current change (%, negative = inhibition) at 10uM” value of the first is higher: 20.1% for the first, -21.3% for the second.

Going from `CCCCNc1ccc(S(=O)(=O)c2cccc([N+](=O)[O-])c2)cc1[N+](=O)[O-]` to `CN(C)c1cc[n+](CCC(=O)Nc2cccc([N+](=O)[O-])c2N)cc1.[Cl-]`, the “hERG current change (%, negative = inhibition) at 10uM” value rises from -22.2% to 4.9%.

First: CCC(C)(C)NC(=O)C(c1cccn1C)N(C(=O)Cn1nnc2ccccc21)c1ccc(OC)cc1OC (stereo not shown)
Second: CCOC(=O)C(Oc1ccc(=O)n(-c2ccccc2)n1)C(C)=O (stereo not shown)
The “hERG current change (%, negative = inhibition) at 10uM” value of the first is lower: -11.7% for the first, 4.1% for the second.

Going from `COc1cc2nc(Cl)nc(N3CCN(C)CC3)c2cc1OC` to `COc1cc2c(cc1OC)CN(c1nc(CN3CCOCC3)nc3sc4c(c13)CCCC4)CC2`, the “hERG current change (%, negative = inhibition) at 10uM” value falls from -13.2% to -73.6%.

First: C#CCOCCOCCOCCNc1nc(N2CCN(C(=O)CCCCCCCCCCNC(=O)Cn3cc(C[C@@H](C)O)nn3)CC2)nc(N2CCN(C(=O)CCCCCCCCCCNC(=O)[C@@H](CCSC)n3cc(CCO)nn3)CC2)n1
Second: CC(C)Cc1nnc(NC(=O)CCC(=O)N2CC(C)CC(C)C2)s1 (stereo not shown)
The “hERG current change (%, negative = inhibition) at 10uM” value of the first is higher: 10.1% for the first, -50.8% for the second.

First: Cc1ccc(N2CC(C(=O)Nc3c4c(nn3C(C)(C)C)CS(=O)(=O)C4)CC2=O)cc1 (stereo not shown)
Second: C/C(=N\NC(=O)c1c([N+](=O)[O-])c(C)nn1C)c1ccc(NC(=O)C2CCCC2)cc1
The “hERG current change (%, negative = inhibition) at 10uM” value of the first is higher: 19.3% for the first, 13.7% for the second.

First: COCC(C)NC(=O)c1ccc(N(C)C)cc1 (stereo not shown)
Second: COCCCNC(=S)N/N=C/c1ccc(OC)cc1
The “hERG current change (%, negative = inhibition) at 10uM” value of the first is lower: 5.77% for the first, 11.3% for the second.

Compared with `CSc1ccccc1NC(=O)CN(C)C(=O)/C=C/c1ccccc1`, `O=C(c1ccc(Br)o1)N(Cc1ccccc1)Cc1ccccc1` is higher in “hERG current change (%, negative = inhibition) at 10uM” value: -8.37% for the first, -5.43% for the second.

Going from `C/C(CC(=O)Nc1ccccc1C(F)(F)F)=N\NC(=O)c1cnccn1` to `CN(C)C=NC(=O)c1cccn1-c1ncc(C(F)(F)F)cc1Cl`, the “hERG current change (%, negative = inhibition) at 10uM” value rises from 4.32% to 8.71%.

First: CC(C)c1nnc(SCC(=O)NCc2ccco2)n1C
Second: CC(=O)C1=C(O)C(=O)N(c2cc(C(C)(C)C)on2)C1c1ccc(C(C)C)cc1 (stereo not shown)
The “hERG current change (%, negative = inhibition) at 10uM” value of the first is higher: 1.44% for the first, -1.87% for the second.

Going from `Cc1cc(C)cc(OCCNC(=O)C(C)N2C(=O)c3ccccc3C2=O)c1` (stereo not shown) to `Cc1cc(C)c(S(=O)(=O)ON2C(=O)c3ccccc3C2=O)cc1C`, the “hERG current change (%, negative = inhibition) at 10uM” value rises from -7.64% to 0.662%.

First: CC(=O)c1c(C)nc(C)nc1NC(=O)Cc1ccccc1
Second: Cc1ccc(NC(=O)NNC(=O)c2cc3ccccc3cc2O)c(C)c1
The “hERG current change (%, negative = inhibition) at 10uM” value of the first is lower: 9.86% for the first, 27.4% for the second.

Going from `Cc1ccccc1NC(=S)N(Cc1cccs1)C1CCCC1` to `Cc1ccc(S(=O)(=O)NCC2CCC(C(=O)NCc3ccccn3)CC2)cc1` (stereo not shown), the “hERG current change (%, negative = inhibition) at 10uM” value falls from 5.42% to -2.03%.

Going from `COc1ccc(-c2cn3cc([N+](=O)[O-])ccc3n2)cc1OC` to `Cc1ccnc(Sc2ccc([N+](=O)[O-])cn2)n1`, the “hERG current change (%, negative = inhibition) at 10uM” value rises from -7.47% to 6.93%.

First: O=S1CCCSC1c1cccnc1 (stereo not shown)
Second: CC(CC(=O)NC1CCSC1=O)c1ccccc1 (stereo not shown)
The “hERG current change (%, negative = inhibition) at 10uM” value of the first is lower: -10.8% for the first, 7.58% for the second.

Compared with `O=C(Cn1nc(-c2ccccc2)ccc1=O)N1CCCCC1`, `O=C(c1ccccc1)N1CCN(C2CC(=O)N(CCc3ccccc3)C2=O)CC1` (stereo not shown) is higher in “hERG current change (%, negative = inhibition) at 10uM” value: -61.6% for the first, -12.5% for the second.

Going from `COc1ccc(NC(=O)C2CCCN(C(=O)NC3CCCCC3)C2)cc1OC` (stereo not shown) to `NC(=O)C1(N2CCCCC2)CCN(Cc2ccccc2Cl)CC1`, the “hERG current change (%, negative = inhibition) at 10uM” value rises from -10.8% to 3.95%.

First: O=C(O)C1C2C=CC3(O2)C1C(=O)N1c2ccccc2C2OCCC2C13 (stereo not shown)
Second: O=C1CN(S(=O)(=O)c2cc(Cl)ccc2Cl)c2ccccc2N1
The “hERG current change (%, negative = inhibition) at 10uM” value of the first is higher: 6.95% for the first, 2.42% for the second.

Compared with `c1ccc2c(c1)CC1(CCCC1)N=C2N1CCOCC1`, `O=C([C@@H]1CCCN1C(=O)c1cccs1)N1CCN(S(=O)(=O)c2cccc(F)c2)CC1` is lower in “hERG current change (%, negative = inhibition) at 10uM” value: 20.8% for the first, 4.84% for the second.

Compared with `Cc1ccc(NC(=O)c2ccccc2NS(=O)(=O)c2ccc(Cl)s2)cc1`, `CS(=O)(=O)n1nc(OC(=O)c2cccc3ccccc23)cc1N` is lower in “hERG current change (%, negative = inhibition) at 10uM” value: 5.94% for the first, -19.5% for the second.

Compared with `CN(C)C1NC(=O)c2cc(-c3ccccc3)sc2N1` (stereo not shown), `CC1=CSC2=NC(=O)/C(=C\c3cccn3-c3ccc([N+](=O)[O-])cc3)C(=N)N12` is higher in “hERG current change (%, negative = inhibition) at 10uM” value: -9.64% for the first, 12.9% for the second.

First: O=C(O)/C=C\c1cc2c(cc1[N+](=O)[O-])OCO2
Second: CN(Cc1cnn(C)c1)C(=O)C1CCCCC1C(=O)O (stereo not shown)
The “hERG current change (%, negative = inhibition) at 10uM” value of the first is higher: 9.56% for the first, -4.4% for the second.
